Growth data for one compound are collected here from PubChem BioAssay (NCI).

SMILES strings stand for the structures. Some compounds were tested as several samples or in several runs, with calls that do not always agree.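 Single-concentration screen, 48 h exposure, 96-well plates. Endpoint: percent growth. Below 10 = active.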 The source holds more than one record for some entries. They are shown here; other results are not. There may be further records. These are repeated runs of one drug, at the concentration stated with the values; each value is one run. Signs of the kind (2×) stand for listed records that agree.

For the assay, the system named is MDA-MB-468 breast. The assay can be described thus: NCI-60 one-dose screen, 48 h (100 = growth as untreated, 0 = no growth, -100 = all killed). As to conditions: 0.25 µM.

With `COc1cccc2c1C(=O)c1c(O)c3c(c(O)c1C2=O)C[C@@](O)(C(=O)CO)C[C@@H]3OC1CC(N)C(O)C(C)O1` (stereo partly specified), the growth entry runs as follows: (runs of 2007) “active: -8.64, -6.58, 8.75, -11.7, 8.92, -0.561, -0.305, -7.65, 1.72, 3.22, -14.3, 0.51, -4.6, 3.08% and inactive: 10.4, 42.7, 29.5, 32.8, 35.6, 12, 33.2, 13.4, 27.2%”; (runs of 2008) “active: -10.7, 4.32, -6.92, 7.94, -3.52, -4.01, -60.4, -53.4, -27.8, -4.6, 5.61, -1.88, -43.2, -10.6, -0.617, -70.1, -2.91, -23.8, -24.6, -28.2, -45.4, -56.4, 3.46, -3.68, -13.5, -33.9, -12.2, -8.16, -8.13, -25, -15, -28.4% and inactive: 31.5, 25.1, 21.2, 24.1, 16.4, 16.2, 16, 30.4, 15.4, 85.8, 12.2, 24.9, 13.9, 52, 35.5%”; (runs of 2009) “active: 6.31, 3.99, -2.32, -9.46, -25.6, -20.3, -12, -15.8, -1.66, -7.58, -10.6, -7.48, -13.4, -7.99, -9.58, -34.7, -37.9, 9.42, 5.85, -9.75, 9.49, -34, -9.49, -25.5 (2×), 9.53, -46.7, -26.8, -9.44, -34.1, -17.9, 3.62, 5.8, -35.1, -25, -34.3, -20.8, -18.1, -33, -21.6, -23.3, 0.823, -21.7, 4.13, -3.04, -23.4, -0.202, -1.39, -18.3, -1.92, -4.65, 4.5, 3.89, -7.27% and inactive: 22.6, 16.2, 13.4, 13.8, 20.3, 10.3, 25.9, 24.3, 16, 29.5, 19.2, 21.8, 11.5%”; (runs of 2010) “active: -13.4 (2×), 0.0925, 0.0628, -17.9, 6.91, 8.73, 4.83, -15.8, -25.2, -20.5, -11.7, -29.4, -26.2, -27.7, 4.84, -32.9, -8.96, -1.84, -15.2, -10.1, -20.9, -1.34, -12.3, -0.289, 3.63, -29.8, -8.91, -6.01, -8.43, -19.7, -12.6, -11.5, -14.1, -23.4, -10.9, -6.15, -24.9, -3.32, -15.3, 4.11, -0.278, 3.01, -3.75, -4.15, -1.52% and inactive: 13, 12.5, 12.7, 22, 20.4, 12.9%”; (runs of 2011) “active: 1.51, -4, 1.52, -12.2, -1.77, 7.11, 6.17, 4.11, -14.5, -6.49, 7.19, -6.67, -12.1, 3.4, -6.89, -10.2 (2×), 1.85 (2×), -6.95, 3.91, -9.85, 3.37, -31.9, -10.8, 2.11, -15.3, 3.5, 0.986, 5.54, 5.44, -2.02, -4.77, 0.346, 5.59, 8.56, -3.09, -2.06, 9.27, 6.93, -5.85, -7.97% and inactive: 22.7, 13.5, 17.4, 12, 18.3, 17.3, 19.6, 25.7, 12.9 (2×), 13.8, 16.2, 10.4, 11.9 (2×), 25.3, 22.5, 28.8, 18.2%”; (runs of 2012) “active: -14.3, -25, -31.9, -29.5, -12.4, -12.1, -11.8, -8.24, 4.3, -35.1, -45.2, -29.3, -27.1, -41.8, -26, -35.2, -28.4, -28.7 (2×), -26.8, -36.1, -9.65, -8.37, 5.67, -5.9, 1.07, 2.96, 9.97, 6.1, 4.73, 4.25, -14.5, -8.43, -38.1, -23.4, -5.34, -1.98, -5.97, 9.45, -0.894% and inactive: 19, 11.3, 20.3, 16.5 (2×), 22.5, 20.6, 33.4, 30.4, 14.6, 31.5, 21.9, 71.1, 46.5, 43.8, 47.9, 77.5, 25.8, 25.6, 27.9, 34.6, 29.5, 24.8, 42.7, 42.9, 29.9, 32.5, 41.3, 27.3, 30.9, 34.9, 39.1%”. For the same compound, the growth entry reads like this: (runs of 2013) “inactive: 36.1, 42.2, 30.4, 27.9, 24.8 (2×), 29, 22.6, 31.2, 21.9, 21.5, 14.3, 28.8, 12.2, 25.4, 26.2 (2×), 26.7, 20, 17.6, 17.5, 21.6 (2×), 25, 15.7, 29.7, 27.5, 22.5, 24.1, 33.3, 32.6, 26.8, 18.6, 20.8, 24.3, 19.1, 24.9 (2×), 13.4, 18.9, 20.2, 24.2, 27.6, 28.6, 29.8, 18.7 (2×), 28.4, 31.6, 46, 38.3, 29.2, 33.2, 29.9, 24.6, 18.1, 20.1, 13.8, 17.1, 16.5% and active: 8.86, 9.37, 1.82, 4.14, 2.36, 7.77, 1.4, 0.0889, -2.27, 3.51, 9.04, -6.04, -2.05, 6.8, -2.04%”; (runs of 2014) “active: 7.32, 8.53, 3.96, -17.9, -2.4, -8.18, -0.679, 0.425, 4.64, 5.47, 5.57, 4.51, 5.02, 2.87, 9.11, 9.43, 1.59, -5.04, -15.5, 2.34, 5.76, 4.89, -2.01, 5.1, 1.32, -6.26, 7.62, -8.19, 4.34, -5.47, -6.06, 1.39, -12.4, -5.51, -4.44, -7.18, 6.76, -0.586, -5.48, -2.07, 6.8, 8.2, -6.69, -1.98, -13, 8.32, -1.15, 6.92, 3.23, -8.62, 9.81, -1.83, -1.19, 8.76% and inactive: 11.7, 17.3, 22.6, 17.7, 11.1, 24.3, 24.9, 31.1 (2×), 30.6, 39.5, 30.3, 16.3, 21 (2×), 11.3, 15.4, 26.6 (2×), 31.7, 37.6, 18.1, 13.5, 14.6, 10.6, 17.9, 26.1, 16, 15.1, 13.4%”; (runs of 2015) “inactive: 28, 13.5 (2×), 23.2, 29.6, 21.1, 35.2, 28.8, 20.8, 25.9, 38.4, 30.6, 31.4, 51.5, 69, 57.5, 32.2, 27.4, 11.6, 31.3 (2×), 16.5, 32.7, 57.8, 33.1, 27 (2×), 32.4, 28.5, 32.8, 11.3, 13.9, 11, 22, 14.6, 11.4, 14.4, 21.4 (2×), 22.7, 16.7, 14.3, 38.2, 17.2, 19.8, 10.8, 11.8, 46.3, 40.9, 29.1, 26.2, 16.8, 20.4, 13.6, 12.6, 22.1, 12.4, 10.2% and active: 8.4, 1.37, -7.86, 5.56, -2.07, 3.13, 4.77, 3.15, -0.319, 4.67, 9.48, 3.98, 2.69, -3.65, 6.18, 0.678, 6.63, -5.54, 5.47, 0.447, 7.96, 9.92, 4.26, 9.02, 3.75, 2.91, -7.91, 9.53, 4.37, -7.13%”; (runs of 2016) “active: 5.28, 6.62, -7.22, -6.34, 9.1, 3.04, 4.21, 2.74, -1.06, 4.09, -8.56, -11.4, 9.79, 8.3, 2.12, 3.16, -5.4, 0.173, -1.53, -14.3, -18.5, -8.01, -2.95, 4.04, -0.343, -7.41, 7.99, 8.44, 7.12, 9.65% and inactive: 12.4, 18.7 (3×), 21.6, 31.7, 36.5, 28.2 (2×), 20.1, 11.6, 12.9, 16.4, 24.7, 12.5, 25.1, 25.4, 19.8, 33, 38.6 (2×), 20.2, 18.3, 17.3, 18.4, 25.2, 33.1, 28.4, 35.4, 42.4, 50.6, 34.8, 35.2, 40.7, 46.5, 39, 37.9, 37, 38.4, 41.6, 46.7, 38.7, 48.9, 53.8, 40.2, 30.8, 33.2, 32.8, 22.2, 32.4, 47.3, 29.9, 39.5, 10.6, 18.9, 32.9%”; (runs of 2017) “inactive: 24.3, 21.1 (2×), 10.9, 14.3, 16.5, 12.7, 18.7, 14.4 (2×), 19.1, 19.3 (2×), 20.1, 16.4, 26.9, 12.2, 27.2, 25.7, 26.6, 26 (2×), 24.9, 17.4, 21, 27.9, 27.3, 21.5, 13.8, 14.6, 14.5, 18.8, 15, 18.9, 27.1, 12.3 (2×), 17.1, 25.5, 39.5, 37.8, 13.4, 26.8, 20.2, 23.7% and active: 8.29, 2.01, 8.55, -3.32, 1.26 (2×), 9.87, 5.15, 6.25, 6.27, 7.22 (2×), 1.59, 8.35, -0.844, 4.03, 6.63, 6.8, 4.5, -3.26, 3.92, 5.36, 7.01, 6.74, 9.76, 5.31, 7.99, 6.03, 8.21, 9.39, 7.07, 9.67, 6.15, -0.592, 4.55, 8.42, 4.38%”; (runs of 2018) “inactive: 17.2 (2×), 22.7, 17.8 (2×), 19.9, 26.1 (2×), 13.5, 27.7, 23.2, 24.6, 47.4, 38.2, 40.9, 30.7, 42.6, 32.6, 32.3, 18.9, 17.7, 22.6, 11.3, 16.5, 19.7, 18.2 (2×), 13.9, 13, 17.5, 15.7, 17.4, 22.5, 24.1, 12.1% and active: 8.1, -6.02, -13.9, 5.35, 8.54, -0.471, -10.3, -13.7, -19.1, -4.09, -12.8, -14.1, -7.87, 3.97, -8.13, 7.41, -3.37, 4.55, -5.53%”. The growth result by setting is: (runs of 2019) “active: -14.1, -2.48, -0.245, -3.63, 6.4, 2.91, 4.72, 3.3, -4.79, 4.32, 8.44, -0.378, 5.52, 9.93, 5.93, -2.02, 1.34, -18.2, 2.41, -3.93, -6.66, -10.1, 9.08, 6.62, 7.09, -2.33, -4.14, 4.95, -1.49, -4.44, 2.57, 0.173, -2.94, -0.745, 1.85, 7.08, 8.22, 9.29, 1.01, -4.12, -2.98, -7.53, -9.71, -20.1, -17.1% and inactive: 33.6, 20.2, 19.2, 17.6, 12.1%”; (runs of 2020) “active: -14.7, -19, -3.59, -19.2, -15.3, 1.11, -22.6, -12.2, -2.27, 9.21, -1.52, -17.1, -5.23, -2.02, -1.26, -6.55, -9.59, -21.4, -26.7, -27.9, -4.2, -1.48, 0.501% and inactive: 22%, 17.4%”; (runs of 2021) “active: -11.5, -3.25, -12.6, -4.94, 7.45, 6.47, 3.99, 7.65, 9.4, -13.1, -6.88 (2×), 0.37, -2.98, 9.74, 7.57, -5.57, -16.7, -5.52, -14.7, -24.2, -0.612, 1.8, -9.58, -9.75, -1.89, -2.18% and inactive: 25.5, 15.1 (2×), 18.1, 17.6, 24.5, 19.3, 10.3 (2×), 14.1, 12.3, 13.6, 15.7, 10.6, 13.1, 15, 14.9, 16.2, 12.7, 18.5, 21.8, 21.2, 23.7, 21.3, 15.9, 22.6, 27, 22.1, 15.4, 10.1, 24.1%”; (runs of 2022) “active: -16.7, -11.7, 7.71, -2.49, -43.9, -14.9, -30, -21.3, -18.1, -5.89, -11.8, -20.8, -2.98, -19.8, -2.92, -10.9, -14.8, -23.5, -24 (2×), -22.5, -15.5, -25.4% and inactive: 61.5, 41.8, 36.1, 89.6%”.
